For 61 molecules, TGI and GI50 results are on record in PubChem BioAssay (NCI).

This experiment has as its system NCI-H322M lung. The experiment is described as follows: DTP human tumour cell line panel, 48 h.

Molecules are shown by their SMILES.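 Five compound concentrations were applied to cells in 96-well plates for 48 hours; endpoints were derived by simple linear interpolation of the resulting dose-response curve. Abbreviation: GI50, concentration required for 50% inhibition of growth. TGI: total growth inhibition.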 Where only a bound is given, the exact number is not on record here.

As to `C1CSCCSCCCSC2CCCCC2SC1` (stereo not drawn), the TGI is greater than 100 µM.
The same measure, in the same setting: the result for `CC(O)C1(CNc2cc(Cl)nc(N)n2)CCCCC1` (stereo not drawn) reads greater than 100 µM; that for `COc1ccc(OC)c(NCC(=O)Nn2cnc3ccc(S(=O)(=O)Nc4cc(OC)ccc4OC)cc3c2=O)c1`, greater than 100 µM; that for `CC1(C)S[C@@H]2[C@H](N3C(=O)c4ccccc4C3=O)CN2[C@H]1NC(=O)N[C@@H]1N2C[C@@H](N3C(=O)c4ccccc4C3=O)[C@H]2SC1(C)C`, greater than 100 µM.
As to `COc1ccc2c(c1)c(-c1nc(-c3c[nH]c4ncccc34)cs1)cn2CCCN1CCCCC1`, the GI50 was 1.64 µM and the TGI was determined as 3.16 µM.
Taken in the same sequence, the figures for `CN(C)CCCN(CCC1CCCCC1)CCC1CCCCC1` were 4.55 µM and 17.2 µM.
`Clc1cc2nn(C3CCCCO3)nc2cc1Cl` (stereo not drawn) yielded a concentration for total growth inhibition (TGI) greater than 100 µM.
As to `COC(OC)c1cc2c(cc1C=O)OCO2`, the TGI is greater than 100 µM.
Still for that read-out and setting: the result for `N/N=C1\C(=O)N(Cc2ccccc2)C(=O)C1C(=O)NCc1ccccc1` (stereo not drawn) reads greater than 100 µM; that for `O=C(O)C[C@@H](Cl)[C@H](NC(=O)OCc1ccccc1)C(=O)O`, greater than 100 µM.
On to `C=C1C(=O)O[C@H]2[C@H]1CC/C(COC(=O)NCc1c[nH]c3ccccc13)=C\CC[C@@]1(C)O[C@@H]21`, for which the GI50 is 11.1 µM and the TGI is 23.4 µM.
In the case of `CC(=O)c1[nH]c(NC(C)C)c(C(=S)Nc2ccccc2)c1N`, the TGI was greater than 100 µM.
Molecule `C=CCN1/C(=C(\C#N)c2nc3ccccc3[nH]2)Sc2c1nc[nH]c2=O` had a TGI greater than 100 µM.
In the case of `S=C(N/N=C(\c1ccccc1)c1ccccn1)NC1CCCCC1`, the TGI was greater than 100 µM.
Still for that read-out and setting: the result for `COc1cc(-c2nccc3cc(OC)c(OC)cc23)ccc1O` reads greater than 100 µM; that for `COc1c(C)cc2c(C(C)C)c(O)c(O)c(C=O)c2c1O`, 78 µM.
As for `CC1=CC(C)=NN=C(N)N1S(=O)(=O)c1cc(C)c(Cl)cc1SCc1ccccc1`, the GI50 is greater than 100 µM and the TGI is greater than 100 µM.
With `Cc1c[n+]2c3ccccc3c3ccccc3c2s1`, the total growth inhibition concentration (TGI) was found to be 48.6 µM.
On the same count and under the same terms, the result for `COc1ccc([N+](=O)[O-])c2c(NCCCN(C)C)ccnc12` reads 93.2 µM.
On to `O=C(CC1(O)C(=O)N(Cc2ccccc2)c2ccc(Cl)cc21)c1ccc(C(=O)NCC2CCC3(CC2)OOC2(CCCCC2)OO3)cc1` (stereo not drawn), for which the GI50 was 8.1 µM and the TGI is greater than 100 µM.
Molecule `Cc1c2ccn(O)cc2c(C)c2c1nc1ccccc12` displayed a total growth inhibition concentration (TGI) greater than 97.1 µM.
The same measure, in the same setting: for `Cc1ccc(C(=O)Nc2ccc(CP(=O)(O)O)cc2)cc1NC(=O)c1cccc(N)c1` the value was greater than 100 µM; for `Cc1ccc(C2(c3ccc(Cl)cc3)c3ccccc3C3=NCCN32)cc1` (stereo not drawn), 22.5 µM; for `CC12C3C4C1C1C2C3C41CO` (stereo not drawn), greater than 100 µM.
Regarding `COC1C(O)CC(OC2CC(OC3CC(O[C@@H]4C(=O)c5c(cc6cc(OC7CC(OC8CC(O)C(O)C(C)O8)C(O)C(C)O7)c(C)c(O)c6c5O)CC4[C@H](OC)C(=O)O)OC(C)C3O)OC(C)C2O)OC1C` (stereo partly drawn), the GI50 was 2.59 µM and the TGI is greater than 33.3 µM.
Taken in the same sequence, the figures for `O=C(Nc1ccc(Cc2ccccc2)cc1)Nc1nn(C(=O)Nc2ccc(Cc3ccccc3)cc2)c2ccccc12` were greater than 100 µM and greater than 100 µM.
`Cc1ccc2oc(=O)cc(/C(=C3/C=CC=N3)c3ccc[nH]3)c2c1`: the GI50 was 0.423 µM and the TGI was 6 µM.
Take `COc1ccc(/C(C)=N/NC(=O)c2ccncc2)c(OC)c1`: the concentration for total growth inhibition (TGI) is greater than 10 µM.
In the case of `COC(=O)c1ccc2c(c1)C(=O)c1c-2n(CCCCl)c(=O)c2cc([N+](=O)[O-])ccc12`, the GI50 was greater than 100 µM and the total growth inhibition concentration (TGI) is greater than 100 µM.
In turn, `CSC1NC(c2ccccc2)=C(C#N)C(=O)N1C1OCC(OC(C)=O)C(OC(C)=O)C1OC(C)=O` (stereo not drawn) displayed a TGI greater than 100 µM.
In the case of `N#CCc1c(-c2ccccc2)n(S(=O)(=O)c2ccccc2)c2ccccc12`, the TGI is greater than 100 µM.
With `Cc1ccc(Nc2nccc(N(C)c3ccc4c(C)n(C)nc4c3)n2)cc1S(N)(=O)=O`, the concentration for total growth inhibition (TGI) is greater than 100 µM.
On the same count and under the same terms, the result for `CCCCCCCCCCCC(=O)OC[C@H](C[As](=O)(O)O)OC(=O)CCCCCCCCCCC` reads 30.9 µM.
For the molecule `Cc1c(O)c(N=Nc2nc3ccccc3s2)c2ccccc2c1O`, the GI50 was greater than 50 µM and the TGI was greater than 50 µM.
`O=[N+]([O-])C(/C=C(\Cl)[N+](=O)[O-])=C1Nc2ccccc2N1` returned a concentration for total growth inhibition (TGI) greater than 100 µM.
Still for that read-out and setting: the result for `Cc1cc(S(=O)(=O)N2CCNNC2=O)c(S)cc1Cl` reads 81.6 µM; that for `N#CC(C(=O)C(=O)Nc1ccccc1)c1ccccc1` (stereo not drawn), greater than 100 µM.
For `CCCCCCCCCCCCCCCCCc1nccn1CCOCCO`, the GI50 is 6.05 µg/mL and the total growth inhibition concentration (TGI) is 11.9 µg/mL.
`COc1ccccc1Cc1ccc(C2C=CC3(CC(=O)C=C3C)C(=O)C2)o1` (stereo not drawn) gave a total growth inhibition concentration (TGI) greater than 100 µM.
Same read-out and setting: the result for `N#CC1(C#N)NC(c2ccccc2)C(C#N)(C#N)NC1c1ccccc1` (stereo not drawn) reads greater than 100 µM.
Turning to `CN(C)CCN1C(=O)c2cccc3cc([N+](=O)[O-])cc(c23)C1=O`, the concentration for total growth inhibition (TGI) worked out at 8.71 µM.
With `CC/C=C\C[C@H](F)C/C=C1/C(=O)C=C[C@@H]1C/C=C\CCCC(=O)OC`, the GI50 was 3.3 µM and the TGI was determined as 10.4 µM.
As to `CCOC(=O)/C=C(\C(=O)OCC)n1ccc(=O)n(Cc2cnnn2CCCCOC(C)=O)c1=O`, the total growth inhibition concentration (TGI) was found to be 36.8 µM.
`CSc1c(C2=C(c3cn(C)c4ccccc34)C(=O)NC2=O)c2ccccc2n1C`: the GI50 was 0.903 µM and the concentration for total growth inhibition (TGI) is greater than 25 µM.
The corresponding values for `N=C(N)c1ccc(-c2ccc(/C=C/c3ccccc3)s2)cc1` are 1.61 µM and 2.99 µM.
`O=C1C(=C(C(F)(F)Cl)C(F)(F)Cl)C2CCC1C2` (stereo not drawn) returned a TGI greater than 10 µM.
For the molecule `COc1cc2c3cc1Oc1c(OC)c(OC)cc4c1C(=NCC4)Cc1ccc(cc1)Oc1cc(ccc1O)C[C@H]3N(C)CC2`, the TGI amounted to 65.2 µM.
As to `COc1cc(C(=O)O[C@H](C(=O)NCCCNC(=O)[C@@H](OC(=O)c2cc(OC)cc3c(C)cccc23)[C@]2(C)CO2)[C@]2(C)CO2)c2cccc(C)c2c1`, the 50% growth inhibitory concentration (GI50) was 0.143 µM and the TGI is 0.916 µM.
`CC1(C)[C@@H]2CC[C@]1(C)[C@H](OC(=O)/C=C/c1ccccc1)C2` showed a TGI of 44.2 µM.
The molecule `COc1nc2cccc(C(O)c3ccccc3)c2nc1-c1ccccc1` (stereo not drawn) had a TGI greater than 100 µM.
`COc1cccc(/C=C/C(=O)c2ccc(SC)cc2)c1OC`: the GI50 was 16.4 µM and the TGI was found to be 30.7 µM.
In turn, `COCCN(CCNC(=O)c1cccc2c(N)c3cccc(C)c3nc12)CCOC` showed a TGI of 7.16 µM.
The same measure, in the same setting: for `Cc1ccc(-c2nc3ccccc3c(=O)n2NCC2(O)OCC(O)C(O)C2O)cc1` (stereo not drawn) the value was greater than 100 µM; for `CSC1(C)C(=O)Nc2c(OCc3ccccc3)cc([N+](=O)[O-])cc21` (stereo not drawn), greater than 100 µM.
Same read-out and setting: the result for `O=C(Cc1ccccc1F)NC1=C(Cl)C(=O)c2ccccc2C1=O` reads 47.9 µM.
On the same count and under the same terms, for `Cc1nc(SCC(=O)Nc2ccc(Cl)cc2)c2sc(=S)n(-c3ccccc3)c2n1` the value was greater than 10 µM.
In turn, `CC(=O)OC1CCC2(C)C(CCC3C2CC(=O)C2(C)C3CC(N3CC3)C2C(C)=O)C1` (stereo not drawn) came in with a concentration for total growth inhibition (TGI) of 52.5 µM.
Same read-out and setting: the result for `CCOC(=O)C1SC(=Nc2ccc(OC)c(OC)c2)N=C1C` (stereo not drawn) reads greater than 100 µM.
Still for that read-out and setting: the result for `C=CC(O)(CBr)CCC(Br)C(=C)C` (stereo not drawn) reads greater than 10 µM.
On to `Oc1ccc(O)c(-c2cn3c(n2)SCC3)c1`, for which the GI50 was 22 µM and the TGI worked out at 53.1 µM.
The molecule `NNC(=O)CC(=O)Nc1cccc(Cl)c1` showed a TGI greater than 100 µM.
